# Columns and labels:
# Assay type in all cases: biochemical
# [1] = test system: dabigatran acylglucuronide anticoagulant activity in human plasma; test: Neutralization of dabigatran acylglucuronide in thrombin clotting time assay, human plasma; conditions: 7 nM dabigatran acylglucuronide, 0.4 U/mL thrombin
# Method: The assay was initiated by the addition of 0.4 U/mL of thrombin and clotting time was measured.
# The major metabolic pathway of dabigatran in humans is through the glucuronidation of the carboxylate moiety.
# [2] = test system: dabigatran anticoagulant activity in human plasma; test: Neutralization of dabigatran in thrombin clotting time assay, human plasma; conditions: 30 nM dabigatran, 1.5-2 U/mL thrombin
# Method: Briefly human plasma is obtained by taking whole blood into 3.13% sodium citrate. This is then centrifuged to obtain platelet free plasma and transferred to a separate tube and frozen until required on the day of the assay. Plasma is thawed at 37° C. on the day of the assay.
# The thrombin clotting time is performed as follows. First thrombin is diluted to manufacturer's specification (3 IU/mL thrombin) in the buffer provided (Dade Behring Test kit) and prewarmed to 37° C. It is used within 2 hrs of being prepared. All assays were performed on a commercially available CL4 clotting machine (Behnk Electronics, Norderstadt, Germany). Fifty μL of plasma is pipetted into provided cuvettes with a magnetic stirrer and allowed to stir for 2 min in the well preheated to 37° C. in the CL4 machine. At this point 100 μL of the thrombin solution is added and the time required for the plasma sample to clot is recorded automatically by the CL4.
# [3] = test system: dabigatran anticoagulant activity in human whole blood; test: Neutralization of dabigatran in thrombin clotting time assay, human whole blood; conditions: 30 nM dabigatran, 1.5-2 U/mL thrombin
# Method: The assay was initiated by the addition of 1.5-2 U/mL of thrombin and clotting time was measured.
# The assay was performed as described above.
molecule,measurement,setting,value
"Clone 22: mouse monoclonal anti-dabigatran antibody, VH SEQ ID NO: 70, VK SEQ ID NO: 71 (antibody, listed as Mus musculus, V domains shown, /mol_type=“protein” /note=“DBG22VH” /organism=“Mus musculus”; /mol_type=“protein” /note=“DBG22VK” /organism=“Mus musculus”) VH: QVQLEQSGPGLVAPSQRLSITCTVSGFSLTSYIVDWVRQSPGKGLEWLGVIWAGGSTNYNSALRSRLSITKSNSKSQVFLQMNSLQTDDTAIYYCASAAYYSYYNYDGFAYWGQGTLVTVSA VL: DVVMTQTPLTLSVTIGQPASISCKSSQSLLYTNGKTYLYWLLQRPGQSPKRLIYLVSKLDSGVPDRFSGSGSGTDFTLKISRVEAEDVGIYYCLQSTHFPHTFGGGTKLEIK",reversal of dabigatran acylglucuronide induced prolongation in clotting time,[1],dose dependently inhibited the dabigatran acylglucuronide induced prolongation in clotting time
same,reversal of dabigatran mediated prolongation of clotting time,[2],dose dependently inhibited the dabigatran mediated prolongation of clotting time
same,reversal of dabigatran mediated prolongation of clotting time,[2]; listed as clone 22,completely reversed
same,reversal of anticoagulant effect of dabigatran,[3],reverses the anticoagulant effect of dabigatran

# Reference: patent US20140377265A1, “ANTICOAGULANT ANTIDOTES” (BOEHRINGER INGELHEIM INTERNATIONAL GMBH, priority 2011, published 2014)
